Results are given in words; binding and its absence hold for the method and conditions named. In cells and extracts the contact can be indirect. Some binding calls cover weakened binding; strength is not graded here. Where a sequence is shown, tags or fusion partners need not be part of it.
T1: GST-Atg17 (yeast) (UniProt Q06410)
T1 sequence: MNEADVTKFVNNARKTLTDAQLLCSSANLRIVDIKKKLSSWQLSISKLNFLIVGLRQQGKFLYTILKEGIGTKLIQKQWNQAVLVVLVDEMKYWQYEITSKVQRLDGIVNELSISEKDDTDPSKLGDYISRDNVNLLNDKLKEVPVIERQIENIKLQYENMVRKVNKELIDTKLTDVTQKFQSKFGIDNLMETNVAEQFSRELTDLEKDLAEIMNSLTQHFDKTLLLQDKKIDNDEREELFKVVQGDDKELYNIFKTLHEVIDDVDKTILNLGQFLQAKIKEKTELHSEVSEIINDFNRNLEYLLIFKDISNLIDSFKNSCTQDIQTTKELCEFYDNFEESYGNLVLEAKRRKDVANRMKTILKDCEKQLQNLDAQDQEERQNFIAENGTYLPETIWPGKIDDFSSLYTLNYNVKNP

T2: GST-Snf7 (yeast) (UniProt P39929)
T2 sequence: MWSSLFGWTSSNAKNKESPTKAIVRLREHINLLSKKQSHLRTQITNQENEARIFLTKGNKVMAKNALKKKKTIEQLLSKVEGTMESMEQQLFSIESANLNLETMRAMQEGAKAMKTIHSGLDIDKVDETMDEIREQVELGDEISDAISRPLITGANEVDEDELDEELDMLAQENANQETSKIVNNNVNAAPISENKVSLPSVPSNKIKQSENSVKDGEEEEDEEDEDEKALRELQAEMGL


Columns and labels:
GST-Atg17 (yeast) = target: T1, GST-Atg17 (yeast); assay: pull-down; GST pull-down from yeast cell lysates: one protein GST-tagged from a plasmid (pYEX4T-1, 500 µM CuSO4 for 2 h), the other 3×HA-tagged in its endogenous locus; cells starved in SD-N for 30 min; blots with anti-GST and anti-HA; WT and vps21Δ cells (in vps21Δ ∼40% of the interaction observed in WT cells)
GST-Snf7 (yeast) = target: T2, GST-Snf7 (yeast); assay: as above

Row | binding (GST-Atg17 (yeast)) | binding (GST-Snf7 (yeast)) | Binder
1 | binds |  | Snf7-HA (protein, UniProt P39929 1-240) MWSSLFGWTSSNAKNKESPTKAIVRLREHINLLSKKQSHLRTQITNQENEARIFLTKGNKVMAKNALKKKKTIEQLLSKVEGTMESMEQQLFSIESANLNLETMRAMQEGAKAMKTIHSGLDIDKVDETMDEIREQVELGDEISDAISRPLITGANEVDEDELDEELDMLAQENANQETSKIVNNNVNAAPISENKVSLPSVPSNKIKQSENSVKDGEEEEDEEDEDEKALRELQAEMGL
2 |  | binds | Atg17-HA (protein, UniProt Q06410 1-417) MNEADVTKFVNNARKTLTDAQLLCSSANLRIVDIKKKLSSWQLSISKLNFLIVGLRQQGKFLYTILKEGIGTKLIQKQWNQAVLVVLVDEMKYWQYEITSKVQRLDGIVNELSISEKDDTDPSKLGDYISRDNVNLLNDKLKEVPVIERQIENIKLQYENMVRKVNKELIDTKLTDVTQKFQSKFGIDNLMETNVAEQFSRELTDLEKDLAEIMNSLTQHFDKTLLLQDKKIDNDEREELFKVVQGDDKELYNIFKTLHEVIDDVDKTILNLGQFLQAKIKEKTELHSEVSEIINDFNRNLEYLLIFKDISNLIDSFKNSCTQDIQTTKELCEFYDNFEESYGNLVLEAKRRKDVANRMKTILKDCEKQLQNLDAQDQEERQNFIAENGTYLPETIWPGKIDDFSSLYTLNYNVKNP

— PMC6548130
